# From PubChem BioAssay AID1030 (National Center for Advancing Translational Sciences (NCATS), 2008)
# Out of some 220,000 compounds screened, about 16,000 (7.3%) were called active. Inconclusive means that the source gave no clear call. Such entries were picked first, then a sample of the others. Calls come from the whole dose curve; as a rule, active = well fitted inhibition curve with a large enough effect (not every such curve was filed as active); inconclusive = small, poorly fitted or top-dose-only effect, or another doubt; inactive = no such curve, though single readings can be large or run the other way. No potency is given beside an inconclusive call; the fits are too rough.
# Target: Aldehyde dehydrogenase 1A1 (Homo sapiens) (UniProt P00352)
# Experiment: qHTS Assay for Inhibitors of Aldehyde Dehydrogenase 1 (ALDH1A1);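 for activity, negative = inhibition: plate controls were no enzyme wells and a reference inhibitor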
# Settings: Purified ALDH1A1, NADH fluorescence, propionaldehyde substrate; series mostly up to 75.3 µM
# Potency is the fitted concentration of half-maximal effect; tags give direction and shape of the fitted curve.
# Sequence of UniProt P00352 (P00352 whole entry, looked up): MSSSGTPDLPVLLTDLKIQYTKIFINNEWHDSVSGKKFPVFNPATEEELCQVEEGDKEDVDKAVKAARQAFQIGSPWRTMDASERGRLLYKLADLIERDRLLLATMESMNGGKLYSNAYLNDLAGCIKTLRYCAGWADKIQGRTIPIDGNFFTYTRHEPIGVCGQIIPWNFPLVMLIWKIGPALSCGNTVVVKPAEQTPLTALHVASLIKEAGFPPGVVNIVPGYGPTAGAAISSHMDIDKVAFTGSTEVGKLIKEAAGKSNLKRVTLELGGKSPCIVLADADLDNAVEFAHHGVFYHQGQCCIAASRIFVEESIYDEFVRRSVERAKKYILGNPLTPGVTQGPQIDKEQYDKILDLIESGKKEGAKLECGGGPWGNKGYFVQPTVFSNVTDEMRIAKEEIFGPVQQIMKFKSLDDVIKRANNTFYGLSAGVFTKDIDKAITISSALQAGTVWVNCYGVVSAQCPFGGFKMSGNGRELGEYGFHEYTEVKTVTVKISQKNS
Structure (SMILES),Potency,"activity, negative = inhibition"
CCSc1ccccc1C(=O)NCc1cccnc1,"inconclusive [inhibitor, single point]",–
CC1=CC(=C(C#N)C#N)C=C(C)N1CCN1CCN(C(=O)Nc2cccc(Cl)c2)CC1,"inconclusive [inhibitor, partial curve]",–
Cc1ccc2nc(SCC(=O)Nc3cc(C)on3)[nH]c2c1,inactive,–
Cn1c(CCNC(=O)c2ccco2)nc2cc(NC(=O)c3ccco3)ccc21,"inconclusive [inhibitor, single point]",–
Cc1ccc(-n2cnc3sc(C)c(C)c3c2=O)cc1,inactive,–
O=C1CCC/C(=N\NC(=O)c2ccc(CSc3cccc4cccnc34)cc2)C1,"inconclusive [inhibitor, single point]",–
CC(C)CCn1c(CN2CCN(Cc3ccccc3)CC2)nc2c1c(=O)n(C)c(=O)n2C,"inconclusive [inhibitor, single point]",–
CCOCC(=O)Nc1ccc(C)c(Cl)c1,active: 25.1 µM,–
N#Cc1c(-c2ccccc2)cc2nc3ccccc3n2c1N,"inconclusive [inhibitor, partial curve]",–
CCOc1ccc(NC(=S)N2CCC(c3nc4ccccc4[nH]3)CC2)cc1,inactive,–
CN1CCc2c(sc3c2C(=O)NC(c2ccc4c(c2)OCO4)N3)C1 (stereo not given),"inconclusive [inhibitor, single point]",–
O=C1NCCN1c1ncc([N+](=O)[O-])s1,inactive,–
CCC(=O)NC(=S)NNC(=O)c1ccccc1[N+](=O)[O-],active: 10 µM,–
CCOC(=O)C1CCN(C(=O)c2cnn3c(C)cc(C)nc23)CC1,"inconclusive [inhibitor, single point]",–
CC(C)(C)c1cc(-c2ccco2)c(C#N)c(SCC#N)n1,"inconclusive [inhibitor, single point]",–
Nc1ccc2nc(NC(=O)C3CCCCC3)sc2c1,inactive,–
OCCSc1ncnc2c1oc1ccccc12,"inconclusive [inhibitor, single point]",–
COC(=O)c1ccc(NC(=S)Nc2ccc3ccccc3c2)cc1,"inconclusive [inhibitor, single point]",–
O=C(CSc1nnc(-c2ccccc2O)o1)Oc1ccc(Br)cc1,"inconclusive [inhibitor, single point]",–
Cc1ccc(Nc2nc(Nc3ccc(C)cc3)nc(SC3=NCCS3)n2)cc1,inactive,–
OCCCNc1ncnc2sc(-c3ccccc3)cc12,"inconclusive [inhibitor, partial curve]",–
COc1cc(-c2nc3ccccn3c2/N=C/c2ccc(F)cc2)ccc1O,"inconclusive [inhibitor, single point]",–
Cc1cc(C(=O)COc2ccc3ccc(=O)oc3c2)c(C)n1C,"inconclusive [inhibitor, single point]",–
COc1ccccc1-n1c(=S)[nH]c2c(sc(=S)n2-c2ccccc2C)c1=O,"inconclusive [inhibitor, single point]",–
Cc1ccc(C2=NNC3(CCOC(C)(C)C3)S2)cc1 (stereo not given),"inconclusive [inhibitor, single point]",–

Structure (SMILES),Potency,"activity, negative = inhibition"
COc1ccccc1-c1noc(CSc2nc(C)cc(=O)[nH]2)n1,inactive,–
CS(=O)(=O)N(Cc1ccccc1)c1ccc(C(=O)N2CCc3ccccc3C2)cc1,inactive,–
CN(CCOC(=O)c1cccc(F)c1)Cc1ccccc1,inactive,–
CC(C(=O)Nc1cccnc1)C1Sc2ccccc2NC1=O (stereo not given),inactive,–
O=C(N/N=C/c1ccncc1)c1nn(Cc2ccccc2)c(=O)c2ccccc12,inactive,–
O=C(CCc1ccccc1)OCC(=O)c1cccc([N+](=O)[O-])c1,"inconclusive [inhibitor, single point]",–
COC(=O)NC(CC(C)=O)c1cccc(F)c1 (stereo not given),–,inactive: 4.67% [at 13.5 µM]
O=C(CCc1ccccc1)Nc1ccc(N2CCCCC2)cc1,inactive,–
COc1ccc(NC(=S)NNC(=O)c2ccc(S(=O)(=O)N3CCOCC3)cc2)cc1,"inconclusive [inhibitor, single point]",–
COC(=O)Nc1nnc(/C=C/c2ccccc2)s1,"inconclusive [inhibitor, partial curve]",–
O=C(O)C1=C[C@@H](O)[C@@H](O)[C@H](O)C1,inactive,–
CCc1nnc(N2C(=O)c3cccc4cccc(c34)C2=O)s1,"inconclusive [inhibitor, single point]",–
Cc1cc(C)c2cc(C#N)c(SCC(=O)NCc3ccco3)nc2c1,"inconclusive [inhibitor, single point]",–
Cc1nc(NCCc2ccc(F)cc2)c(C#N)c(C)c1[N+](=O)[O-],"inconclusive [inhibitor, single point]",–
O=C(Cc1cccc2ccccc12)N/N=C1\CCCc2ccccc21,"inconclusive [inhibitor, single point]",–
COc1ccccc1NC(=O)CN(Cc1ccco1)C(=O)c1cc2ccccc2o1,active: 22.4 µM,–
CN(C)/C=C1\C(=O)ON=C1c1ccccc1,inactive,–
Cc1ccc(-c2nn(C)c(=O)c3ccccc23)cc1CNC(=O)c1ccccc1,inactive,–
CCCCc1nc2c(c3c1C[C@H](C)OC3)CN(S(=O)(=O)c1ccc(Cl)c3nonc13)CC2,"inconclusive [inhibitor, partial curve]",–
Clc1ccc(Cc2noc(-c3cccs3)n2)cc1,inactive,–
COc1ccccc1/C=N/N1C(=O)C(CC(=O)Nc2ccc([N+](=O)[O-])cc2OC)SC1=Nc1cccc(C)c1C (stereo not given),inactive,–
COc1ccc(S(=O)(=O)N2CCCCCC2)cc1C(=O)OCC(=O)NCC(C)C,"inconclusive [inhibitor, single point]",–
CCCn1c(C)nc2c(NC(C)CN(C)C)nc(C)nc21 (stereo not given),inactive,–
COCCCN1C(=O)C(=O)/C(=C(/O)c2ccc(OCC(C)C)cc2C)C1c1cccnc1 (stereo not given),inactive,–
CCn1nccc1C(=O)Nc1nccs1,"inconclusive [inhibitor, single point]",–

Structure (SMILES),Potency,"activity, negative = inhibition"
COc1cc(/C=C/C(=O)OCC(=O)NCc2ccco2)cc(OC)c1OC,"inconclusive [inhibitor, single point]",–
O=C1Nc2ccccc2CCC1Sc1nnc(-c2ccc(Cl)cc2)s1 (stereo not given),"inconclusive [inhibitor, single point]",–
CCOc1cc(C2NC(=O)NC(O)(C(F)(F)F)C2C(=O)c2ccc(Cl)cc2)ccc1O (stereo not given),"inconclusive [inhibitor, single point]",–
COC(=O)c1ccccc1NC(=O)NCc1ccccc1,"inconclusive [inhibitor, single point]",–
Fc1ccc2nc(Nc3nc4cc5c(cc4s3)OCCO5)sc2c1,"inconclusive [inhibitor, single point]",–
Cc1occc1-c1nnc(SCC(=O)Nc2nccs2)n1Cc1ccco1,"inconclusive [inhibitor, single point]",–
O=C(c1ccccc1Cl)N(C(=O)c1ccccc1Cl)c1nccc(-c2cccs2)n1,"inconclusive [inhibitor, partial curve]",–
O=C1/C(=C/c2ccccc2)CCCc2ccccc21,inactive,–
CC(C)c1ccc(NC(=O)N2CCC(c3nc4ccccc4o3)CC2)cc1,"inconclusive [inhibitor, single point]",–
CCCN1Cc2cccc(C(=O)N3CCN(c4cc(Cl)ccc4C)CC3)c2C1=O,"inconclusive [inhibitor, single point]",–
CCN(CC)S(=O)(=O)c1ccc(C(=O)OCCNC(=O)c2cccnc2)cc1,"inconclusive [inhibitor, single point]",–
C/C(=N\NC(=O)c1ccc(C)cc1)C1C(=O)c2ccccc2C1=O,"inconclusive [inhibitor, single point]",–
COc1ccc(S(=O)(=O)N(C(C)=O)c2ccc3oc(=O)sc3c2)cc1,"inconclusive [inhibitor, single point]",–
Cc1cc(C(=O)N2CCN(S(=O)(=O)c3ccccc3F)CC2)c(C)o1,inactive,–
CCOC(=O)C(=CNc1ccc(OC)cc1[N+](=O)[O-])C(=O)OCC,inactive,–
Cc1ccc(-n2cc(C(=O)c3cc(Cl)ccc3O)cc(C#N)c2=O)cc1,inactive,–
O=C(O)CC1S/C(=N/N=C/c2ccc(-c3ccc(Cl)cc3[N+](=O)[O-])o2)NC1=O (stereo not given),active: 22.4 µM,–
CCOC(=O)c1ccc(NC(=O)Cn2ncc(Cl)c(Cl)c2=O)cc1,active: 28.2 µM,–
O=C(Cn1cnc2ccccc21)N/N=C/c1ccccc1[N+](=O)[O-],"inconclusive [inhibitor, single point]",–
CCOC(=O)C1CCCN(C(=O)CN2C(=O)COc3ccc(C(C)(C)C)cc32)C1 (stereo not given),"inconclusive [inhibitor, single point]",–
COc1ccc(NC(=O)CN2CCC(C)CC2)c([N+](=O)[O-])c1,"inconclusive [inhibitor, single point]",–
COc1ccc(C2Nc3ccccc3C(=O)N2NS(C)(=O)=O)cc1OC (stereo not given),"inconclusive [inhibitor, single point]",–
Cc1oc(-c2cc3c(cc2Cl)OCO3)nc1CN1CCCC(C(=O)N2CCOCC2)C1 (stereo not given),active: 1 µM,–
O=C(NCCc1c[nH]c2ccccc12)C(=O)NCC1OCCCN1S(=O)(=O)c1cccs1 (stereo not given),active: 25.1 µM,–
Cc1cc(C(=O)CSc2nnc(-c3ccc(F)cc3)o2)c(C)n1CC1COc2ccccc2O1 (stereo not given),inactive,–
